Measured values taken from PubChem BioAssay AID485281 (National Center for Advancing Translational Sciences (NCATS), 2010).
In all, about 350,000 compounds went through this assay and about 260 (0.074%) were called active. The shares of active, inactive and inconclusive entries below differ from those in the screen. Calls come from the whole dose curve; as a rule, active = well fitted inhibition curve with a large enough effect; inconclusive = small, poorly fitted or top-dose-only effect; inactive = no such curve, though single readings can be large or run the other way. A potency beside an inconclusive call is a rough fit, not a confirmed value.

molecular target: Ferritin light chain (Equus caballus) (UniProt P02791); assay: qHTS Assay for Identification of Novel General Anesthetics; settings: apoferritin/1-aminoanthracene competitive binding, fluorescence; activity change, negative = displacement: at 77.5 µM (top of the series); note: nearly all actives have a fitted effect of over 20% in size
Source text: Source: NIH Chemical Genomics Center [NCGC]
Assay Submitter: Roderic Eckenhoff, University of Pennsylvania
Screening Center PI: Christopher P. Austin, NIH
Probe Development: NIH Chemical Genomics Center [NCGC]
Anesthetic development has remained a largely empirical process. There are growing concerns about the cognitive effects of known general anesthetics and acceleration of the onset of neurodegenerative disease. The compounds' toxicity and multiple specific binding targets in the mammalian brain [4] has made them less attractive as drug leads. In this assay, a GABAergic mimetic model system, apoferritin and a profluorescent 1-aminoanthracene ligand (1-AMA), was used to construct a competitive binding assay for identification of novel general anesthetics. The assay was validated for 1-AMA using other known anesthetics, such as isoflurane (CID:3763) and propofol (CID: 4943), [6].
[1] S.L. Bianchi, T. Tran, C. Liu, S. Lin, Y. Li, J.M. Keller, R.G. Eckenhoff, and M.F. Eckenhoff, Brain and behavior changes in 12-month-old Tg2576 and nontransgenic mice exposed to anesthetics. Neurobiol Aging 29 (2008) 1002-10.
[2] Z. Xie, Y. Dong, U. Maeda, R.D. Moir, W. Xia, D.J. Culley, G. Crosby, and R.E. Tanzi, The inhalation anesthetic isoflurane induces a vicious cycle of apoptosis and amyloid beta-protein accumulation. J Neurosci 27 (2007) 1247-54.
[3] P. Honegger, and J.M. Matthieu, Selective toxicity of the general anesthetic propofol for GABAergic neurons in rat brain cell cultures.
[4] M.F. Eckenhoff, K. Chan, and R.G. Eckenhoff, Multiple specific binding targets for inhaled anesthetics in the mammalian brain. J Pharmacol Exp Ther 300 (2002) 172-9.
[5] C.A. Butts, J. Xi, G. Brannigan, A.A. Saad, S.P. Venkatachalan, R.A. Pearce, M.L. Klein, R.G. Eckenhoff, and I.J. Dmochowski, Identification of a fluorescent general anesthetic, 1-aminoanthracene. Proc Natl Acad Sci U S A 106 (2009) 6501-6.
[6] W.A. Lea, J. Xi, A. Jadhav, L. Lu, C.P. Austin, A. Simeonov, and R.G. Eckenhoff, A high-throughput approach for identification of novel general anesthetics. PLoS One 4 (2009) e7150.
Three uL of reagents (free 1-AMA (50% saturated solution of 1-aminoanthracene
in PBS) in columns 3, 4 as negative control and 1-AMA/apoferritin mixture (10 uM horse-spleen apoferritin in 50% saturated 1-aminoanthracene in PBS) in columns 1, 2, 5-48) was dispensed into 1536-well Greiner black assay plates. Compounds (23 nL) were transferred via Kalypsys pintool equipped with 1,536-pin array (10 nL slotted pins, V&P Scientific, San Diego, CA). Titration of the positive control, propofol, were delivered via pin transfer from separate control plates to the 2nd column of each assay plate. The starting concentration of the control, dissolved in DMSO, was at 160 mM, followed by two-fold dilution points in duplicate, for a total of 16 concentrations. The plates were incubated for 10 min at room temperature, and then read on an EnVision HTS multilabel reader (Perkin-Elmer, Waltham, MA) (end point read, 3 min/plate) using Fura2 BFP excitation filter (380 nm, bandwidth 10 nm) and fluorescein emission filter (535 nm, bandwidth 25 nm) set. A LANCE/DELFIA dichroic mirror with a cutoff wavelength at 400 nm was used to maximize signal accuracy and strength. Vehicle-only plates, with DMSO being pin-transferred to the entire column 5-48 compound area, were inserted uniformly at the beginning and the end of each library in order to monitor for and record any shifts in the background. Activity was computed as the normalized fluorescence response relative to free 1-AMA and 1-AMA/apoferritin complex values. Concentration-effect relationships were derived by using curve fitting algorithms developed in-house (http://ncgc.nih.gov/pub/openhts/). A four parameter Hill equation was fitted to the concentration-response data by minimizing the residual error between the modeled and observed responses.
% is set by controls: 0 for no effect and ±100 for the full control effect; potency is the fitted concentration of half-maximal effect; tags give direction and shape of the fitted curve.

UniProt P02791, sequence (P02791 whole entry, looked up): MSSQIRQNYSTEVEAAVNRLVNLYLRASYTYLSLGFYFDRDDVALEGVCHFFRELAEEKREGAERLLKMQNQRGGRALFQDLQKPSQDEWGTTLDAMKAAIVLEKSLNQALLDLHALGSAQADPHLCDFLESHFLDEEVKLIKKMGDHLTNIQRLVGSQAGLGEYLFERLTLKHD

Row | Compound | activity change, negative = displacement | Potency
1 | O=C(Nc1ccc(Br)cc1)C1CCN(S(=O)(=O)c2cccc3nsnc23)CC1 | inactive: -11.1% | –
2 | O=Nc1c(-c2c(O)[nH]c3cc(Br)ccc23)[nH]c2ccccc12 | – | inconclusive: 5.01 µM [inhibitor, partial curve]
3 | COc1ccc(CCNC(=O)c2nnc(Cc3ccc(Cl)cc3)o2)cc1OC | – | inconclusive: 15.8 µM [inhibitor, partial curve]
4 | O=C(NCC(c1ccco1)S(=O)(=O)c1ccc(Cl)cc1)c1ccccc1F (configuration not stated) | inactive: 4.59% | –
5 | C[C@H](NC(=O)c1nc[nH]c1C(=O)NC1CCN(C(=O)OC(C)(C)C)CC1)C(=O)OCc1ccccc1 | – | inconclusive: 15.8 µM [inhibitor, partial curve]
6 | CCC(=O)Nc1ccccc1C(=O)OCC(=O)c1cccc2ccccc12 | – | inconclusive: 28.2 µM [inhibitor, partial curve]
7 | CN1CCN(CCC(=O)Nc2ccc(C3CCCC3)cc2)CC1 | – | inconclusive: 14.1 µM [inhibitor, partial curve]
8 | O=C(CSC(=S)N1CCOCC1)N1N=CCC1c1ccccc1 (configuration not stated) | – | inconclusive: 28.2 µM [inhibitor, partial curve]
9 | Cn1cc(CN2CCCC(C(=O)Nc3ccc(-c4cccc(F)c4)cc3)C2)cn1 (configuration not stated) | – | inconclusive: 28.2 µM [inhibitor, partial curve]
10 | CC(=O)Nc1ccc(S(=O)(=O)N(C)CC(=O)OCC(=O)N2CCc3ccccc32)cc1 | – | inconclusive: 31.6 µM [inhibitor, partial curve]
11 | Cc1ccc(CNc2ncnc3cc(Cl)ccc23)cc1 | inactive: -3.91% | –
12 | COc1cccc(C2=NN(C(=O)c3ccco3)C(c3ccco3)C2)c1 (configuration not stated) | – | inconclusive: 22.4 µM [inhibitor, partial curve]
13 | Cc1ccc(-c2n[nH]c(=S)n2/N=C/C=C/c2ccccc2[N+](=O)[O-])cc1 | – | inconclusive: 20 µM [inhibitor, partial curve]
14 | CN(C)/C=N/c1nc2nccc(-c3cccnc3)n2n1 | inactive: 166% | –
15 | COc1ccc(-c2nnn(CC(=O)c3ccccc3)n2)cc1OC | – | inconclusive: 31.6 µM [inhibitor, partial curve]
16 | CCOc1ccccc1OCC(=O)N/N=C(\C)Cc1ccc(OC)cc1 | – | inconclusive: 12.6 µM [inhibitor, partial curve]
17 | CC(=O)c1ccc(NC(=S)Nc2ccc(Br)c(Cl)c2)cc1 | – | inconclusive: 14.1 µM [inhibitor, partial curve]
18 | Cc1ccc(NC(=O)c2cccc3c2-c2ccccc2C3=O)cc1C | – | inconclusive: 20 µM [inhibitor, partial curve]
19 | Cn1c(=O)oc2cc(S(=O)(=O)NCCN3CCN(c4ccccc4F)CC3)ccc21 | inactive: -6.86% | –
20 | COc1ccc(CNC(=O)c2ccc3c(c2)N(C)C(=O)CS3=O)cc1 (configuration not stated) | – | inconclusive: 28.2 µM [inhibitor, single point]
21 | CCOc1cc(/C=C2\SC(=N)N(c3nccs3)C2=O)ccc1OCCN1CCOCC1 | – | inconclusive: 50.1 µM [inhibitor, single point]
22 | COc1ccc(Cc2nnc(SCC(=O)c3ccccc3)o2)cc1 | – | inconclusive: 31.6 µM [inhibitor, partial curve]
23 | Cc1c(C(=O)NCc2ccccc2)sc2nc3n(c(=O)c12)CCC3 | – | inconclusive: 2.82 µM [inhibitor, full curve]

Row | Compound | activity change, negative = displacement | Potency
24 | O=C(c1ccc(-c2ccc([N+](=O)[O-])cc2Cl)o1)N1CCOCC1 | – | inconclusive: 25.1 µM [inhibitor, partial curve]
25 | Cc1c(Cc2ccccc2)c(=O)oc2cc(OCC(=O)NC(Cc3ccc(Cl)cc3)C(=O)O)ccc12 (configuration not stated) | – | inconclusive: 31.6 µM [inhibitor, partial curve]
26 | Cc1ccc2cc3c(NC(=O)CC(C)C)nn(C)c3nc2c1 | inactive: -0.0807% | –
27 | Cc1cccc(NC(=S)N=Nc2c(O)[nH]c3ccccc23)c1 | – | inconclusive: 44.7 µM [inhibitor, single point]
28 | Cc1ccc(SCC(=O)OCn2nnc3ccccc3c2=O)cc1C | – | inconclusive: 50.1 µM [inhibitor, single point]
29 | Cc1cc(Nc2ccc(Cl)cc2)n(-c2ccccc2)n1 | – | inconclusive: 44.7 µM [inhibitor, single point]
30 | COc1cc(CNC(=O)c2nc(Cn3nc(C)c(Br)c3C)no2)cc(OC)c1 | – | inconclusive: 28.2 µM [inhibitor, partial curve]
31 | O=C(NCC1CCCCC1)c1ccc(Br)o1 | – | inconclusive: 12.6 µM [inhibitor, partial curve]
32 | CC(C)Oc1ccc(CNC(=O)c2ccc(NC(=O)c3nsc4ccccc34)cc2)cc1 | – | inconclusive: 28.2 µM [inhibitor, partial curve, poor fit]
33 | O=C(Nc1ncnc2c1CCC2)C12CC3CC(CC(C3)C1)C2 | – | inconclusive: 22.4 µM [inhibitor, partial curve]
34 | CCOC(=O)c1c(NC(=O)/C=C/C(=O)O)sc(C)c1-c1ccc(F)cc1 | – | inconclusive: 100 µM [inhibitor, partial curve, poor fit]
35 | CC1CCCN(C(=O)c2ccc3c(c2)C(=O)N(CCC2=CCCCC2)C3=O)C1 (configuration not stated) | – | inconclusive: 15.8 µM [inhibitor, partial curve]
36 | C[C@@H](C(=O)N[C@@H](CO)Cc1ccccc1)[C@@H]1C[C@@]1(C)[C@@H](NC(=O)OCc1ccccc1)c1ccccc1 | – | inconclusive: 31.6 µM [inhibitor, single point]
37 | CC(C)(C)NC(=O)c1ccc2c(c1)N(CC(=O)N1CCN(c3ccc(F)cc3)CC1)C(=O)C(C)(C)O2 | – | inconclusive: 31.6 µM [inhibitor, single point]
38 | CCC(NC(=O)CCl)c1ccc(C)cc1 (configuration not stated) | – | inconclusive: 31.6 µM [inhibitor, partial curve]
39 | CCc1ccccc1NC(=O)CSc1ncc2c(n1)-c1ccccc1N(Cc1ccc(C)cc1)S2(=O)=O | – | inconclusive: 7.08 µM [inhibitor, full curve]
40 | CC(=O)Nc1ccc(C(=O)OCCC(C)C)cc1 | – | inconclusive: 14.1 µM [inhibitor, partial curve]
41 | O=[N+]([O-])c1ccc(COc2ccc(-c3[nH]ncc3-c3ccccc3)c(O)c2)cc1 | – | inconclusive: 11.2 µM [inhibitor, partial curve]
42 | CCCCC(=O)Nc1ncc([N+](=O)[O-])s1 | – | inconclusive: 35.5 µM [inhibitor, single point]
43 | CCN1CCCC1CNc1ncnc2c1[nH]c1ccc(F)cc12 (configuration not stated) | – | inconclusive: 39.8 µM [inhibitor, partial curve]
44 | Cc1ccc(S(=O)(=O)c2cn(Cc3ccccc3)c3cc(N4CCCC4)c(F)cc3c2=O)cc1C | inactive: 3.23% | –
45 | CCOC(=O)CSc1nc(N)c(C#N)c(CC(C)C)c1C#N | – | inconclusive: 44.7 µM [inhibitor, partial curve]
46 | COc1ccc(CN(C)CC(=O)Nc2sc3c(c2C#N)CCC3)c(OC)c1 | – | inconclusive: 35.5 µM [inhibitor, single point]

Row | Compound | activity change, negative = displacement | Potency
47 | Cc1nnc(SCc2cccc([N+](=O)[O-])c2)s1 | – | inconclusive: 28.2 µM [inhibitor, single point]
48 | COc1ccc(C(=O)NC(=S)NNC(=O)CNC(=O)C2CCCCC2)cc1 | – | inconclusive: 25.1 µM [inhibitor, partial curve]
49 | O=C(CSc1cccc[n+]1[O-])C12CC3CC(CC(C3)C1)C2 | – | inconclusive: 12.6 µM [inhibitor, partial curve]
50 | CC(C)CCNC(=O)CCn1nc(-c2ccc(Cl)cc2)ccc1=O | – | inconclusive: 50.1 µM [inhibitor, single point]
51 | COc1ccccc1-c1cc(C(=O)NCc2ccco2)no1 | – | inconclusive: 31.6 µM [inhibitor, partial curve]
52 | COCCNc1nc(NCc2ccccc2OC)c2cnn(C)c2n1 | inactive: -11.3% | –
53 | Cc1nc(Nc2cc(F)ccc2C)c2nnn(Cc3ccccc3)c2n1 | – | inconclusive: 22.4 µM [inhibitor, partial curve]
54 | O=C(CN1CCCc2ccccc21)N/N=C/c1c(O)ccc2ccccc12 | inactive: 6.77% | –
55 | COc1cccc2c(=O)cc(C)n(CC(=O)Nc3ccccc3C)c12 | inactive: -15.5% | –
56 | OC12CCCCC1C(c1ccc3c(c1)OCO3)N(Cc1ccccc1F)CC2 (configuration not stated) | – | inconclusive: 12.6 µM [inhibitor, partial curve]
57 | COc1ccc(/C=N/NC(=O)C(=O)NCc2cccnc2)cc1OC | inactive: -4.85% | –
58 | NC(N)=N/N=C\c1c(Cl)cccc1Cl | inactive: -8.26% | –
59 | CN(C)c1ccc(NC(=O)CSc2nnc(C3CCCCC3)n2N)cc1 | – | inconclusive: 39.8 µM [inhibitor, partial curve]
60 | Cc1cc(=O)[nH]c(SCC(=O)Nc2nc(-c3ccccc3)cs2)n1 | – | inconclusive: 35.5 µM [inhibitor, partial curve]
61 | O=C(CN1CCCCCC1)Nc1cccc2c1OCO2 | – | inconclusive: 25.1 µM [inhibitor, partial curve]
62 | COc1ccc(N2CCN(CCCNC(=O)c3cnn(-c4ccc(F)cc4)c3-n3cccc3)CC2)cc1 | inactive: 1.45% | –
63 | CCOC(=O)c1cn(CC(=O)Nc2cccc(Cl)c2C)nn1 | – | inactive
64 | COc1ccc(N2CCN(c3nc(-c4ccccc4F)nc4ccccc34)CC2)cc1 | inactive: 2.92% | –
65 | Cc1ccn2cc(CSc3ccccc3)nc2c1 | – | inconclusive: 39.8 µM [inhibitor, single point]
66 | O=C(c1ccc(N2CCCCC2)c([N+](=O)[O-])c1)N(Cc1ccccc1)c1ccccn1 | – | inconclusive: 35.5 µM [inhibitor, partial curve]
67 | O=C(c1cccc2c1-c1ccccc1/C2=N/O)N1CCCCC1 | – | inconclusive: 28.2 µM [inhibitor, partial curve]
